Assay results taken from PubChem BioAssay AID504374 (National Center for Advancing Translational Sciences (NCATS), 2011).
In all, about 1,500 compounds went through this assay and about 100 (6.7%) were called active. Roughly 7% stayed inconclusive and do not appear here. Calls come from the whole dose curve; as a rule, active = well fitted inhibition curve with a large enough effect; inconclusive = small, poorly fitted or top-dose-only effect, or effect the other way; inactive = flat fitted curve, though single readings scatter. Some of the results follow.

What follows are compounds tested against Runt-related transcription factor 1 (Homo sapiens) + Core-binding factor subunit beta (Homo sapiens) (UniProt Q01196+Q13951) (assay: qHTS Assay for Compounds Blocking the Interaction Between CBF-beta and RUNX1 for the Treatment of Acute Myeloid Leukemia: Hit Validation). Conditions: AlphaScreen CBFb-His/RUNX1-biotin binding; series mostly up to 59.8 µM; activity, negative = inhibition: at the top concentration.
Sequence of UniProt Q01196 (Q01196 whole entry, looked up): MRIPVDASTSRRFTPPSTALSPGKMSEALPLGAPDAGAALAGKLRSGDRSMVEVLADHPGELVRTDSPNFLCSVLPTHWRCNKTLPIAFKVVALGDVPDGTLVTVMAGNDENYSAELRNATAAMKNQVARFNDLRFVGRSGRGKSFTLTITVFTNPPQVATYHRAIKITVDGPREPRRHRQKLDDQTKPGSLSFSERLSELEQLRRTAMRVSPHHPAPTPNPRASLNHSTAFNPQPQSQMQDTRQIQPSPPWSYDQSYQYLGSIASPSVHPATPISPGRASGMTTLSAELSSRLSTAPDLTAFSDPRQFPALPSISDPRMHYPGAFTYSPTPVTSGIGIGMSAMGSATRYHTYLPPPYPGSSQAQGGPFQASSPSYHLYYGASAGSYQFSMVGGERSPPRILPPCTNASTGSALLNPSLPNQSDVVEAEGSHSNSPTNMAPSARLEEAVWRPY
Sequence of UniProt Q01196 (Q13951 whole entry, looked up): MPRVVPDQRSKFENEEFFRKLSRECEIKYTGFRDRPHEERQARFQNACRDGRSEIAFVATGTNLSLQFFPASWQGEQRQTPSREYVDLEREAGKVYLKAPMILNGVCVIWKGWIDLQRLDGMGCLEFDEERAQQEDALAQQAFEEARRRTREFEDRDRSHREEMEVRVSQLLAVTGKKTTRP
Procedure, shortened: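 Compounds were added to a premixed CBF-beta-His/RUNX1-biotin complex (30 nM each, 20 min) for 15 min. Nickel and streptavidin AlphaScreen beads followed for 90 min at room temperature, with emission at 440 nm […].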
% is set by controls: 0 for no effect and ±100 for the full control effect; potency is the fitted concentration of half-maximal effect.
Note: nearly all actives have a fitted effect of over 60% in size.

With `Cc1cccc(Nc2nc(N)nc(CCl)n2)c1` as the compound, how does the “activity, negative = inhibition” value read?
The value was inactive: 3%.

For `Cc1nnsc1-c1nnc(SCC(=O)c2ccc(F)cc2)n1C1CC1`, which “activity, negative = inhibition” value is on record?
The value was inactive: -1.16%.

Which “activity, negative = inhibition” value does the source give for `O=C1Nc2ccccc2C1(O)Cc1ccccn1` (stereo not given) here?
The value was inactive: -2.94%.

`CCC1(C)N=C(N)Nc2nc3cc(C)c(C)cc3n21` (stereo not given) was tested. Which “activity, negative = inhibition” value did it give?
The value was inactive: -2.57%.

With `CC(=O)Oc1ccc(C(=O)Nc2cccc(-c3nnc(-c4ccco4)o3)c2)cc1` as the compound, how does the “activity, negative = inhibition” value read?
Its value is inactive: -1.5%.

How did the “activity, negative = inhibition” value turn out when `Cc1onc(-c2c(F)cccc2Cl)c1C(=O)N1CCSCC1` was run?
Its value is inactive: -1.82%.

`C=CCc1cc(Cl)ccc1OC(=O)Nc1cccc(Cl)c1` was tested. Which “activity, negative = inhibition” value did it give?
The value was inactive: 0.381%.

With `N#Cc1c(-c2cccnc2)c2c([nH]c1=O)-c1ccccc1OC2` as the compound, how does the “activity, negative = inhibition” value read?
The value was inactive: -1.28%.

For `CCOC(=O)C1CC(C)=C(C)CC1C(=O)O` (stereo not given), which “activity, negative = inhibition” value is on record?
The value was inactive: 6.48%.

Which “activity, negative = inhibition” value does the source give for `O=C(O)/C=C/C(=O)Nc1ccc(N2CCOCC2)nc1N1CCOCC1` here?
Its value is inactive: -5.08%.

For `Nc1cccnc1Oc1ccccc1F`, which “activity, negative = inhibition” value is on record?
The value was inactive: -2.77%.

Which “activity, negative = inhibition” value does the source give for `CC(=O)Nc1ccc(OCCOc2ccc([N+](=O)[O-])cc2)cc1` here?
Its value is inactive: 0.185%.

How did the “activity, negative = inhibition” value turn out when `O=C(O)/C=C/C(=O)Nc1ccc(OC(F)(F)F)cc1` was run?
The value was inactive: -2.16%.

For `N#C/C(=C\c1cccnc1)c1ccc(Br)cc1`, which “activity, negative = inhibition” value is on record?
Its value is inactive: 3.21%.

For `CN(C)c1cc(-c2ccc(F)cc2)oc(=O)c1Cl`, which “activity, negative = inhibition” value is on record?
The value was inactive: 0.27%.

For `Cc1nn2c(NCCOCCO)c3c(nc2c1-c1ccccc1)CCC3`, which “activity, negative = inhibition” value is on record?
Its value is inactive: -12.7%.

With `CSc1cccc(NC(=O)Nc2ccccc2C(N)=O)c1` as the compound, how does the “activity, negative = inhibition” value read?
Its value is inactive: 5.85%.

For `COc1cc(OC)c(C2C(C#N)=C(C)NC(C)=C2C#N)c(C(=O)O)c1`, which “activity, negative = inhibition” value is on record?
Its value is inactive: -1.53%.

`c1csc(-c2nc3ccccc3s2)c1` was tested. Which “activity, negative = inhibition” value did it give?
Its value is inactive: 1.21%.

For `Cc1onc(-c2c(Cl)cccc2Cl)c1C(=O)Nc1nc(C(C)(C)C)cs1`, which “activity, negative = inhibition” value is on record?
The value was inactive: -1.93%.

`COC(=O)c1[nH]c(C)c(/C(O)=C2\C(=O)C(=O)N(CCN3CCOCC3)C2c2ccc(C)o2)c1C` (stereo not given) was tested. Which “activity, negative = inhibition” value did it give?
The value was inactive: 2.91%.

How did the Potency turn out when `O=C(O)c1cc(O)c2c(c1)[C@H]([C@H]1c3cc(C(=O)O)cc(O)c3C(=O)c3c(O[C@@H]4OC(CO)C(O)C(O)C4O)cccc31)c1cccc(O[C@@H]3OC(CO)C(O)C(O)C3O)c1C2=O` (stereo not given in full) was run?
Its Potency is active: 0.562 µM.

How did the “activity, negative = inhibition” value turn out when `O=C(/C=C/c1cn(CC(O)CN2CCCCC2)c2ccccc12)c1ccccc1` (stereo not given) was run?
The value was inactive: 2.12%.

With `CNS(=O)(=O)c1ccc2ccccc2c1` as the compound, how does the “activity, negative = inhibition” value read?
The value was inactive: 12.8%.

`Cc1ccc(Cl)cc1NC(=S)N(CCN(C)C)C(C)c1ccccn1` (stereo not given) was tested. Which Potency did it give?
The Potency was active: 5.46 µM.

With `CN(C)CCCNc1cc(C(C)(C)C)nc2c(-c3ccccc3)cnn12` as the compound, how does the “activity, negative = inhibition” value read?
The value was inactive: 10.4%.

How did the “activity, negative = inhibition” value turn out when `COC(=O)c1sccc1NC(=O)CC1C(=O)NCCN1C(=O)Nc1ccccc1` (stereo not given) was run?
The value was inactive: -8.31%.

`COc1cccc(/C=N/NC(=O)c2ccc3nc[nH]c3c2)c1` was tested. Which “activity, negative = inhibition” value did it give?
Its value is inactive: -11.7%.

For `NC(=O)c1c(NC(=O)Cn2nc(C(=O)O)c3ccccc3c2=O)sc2c1CCCC2`, which “activity, negative = inhibition” value is on record?
Its value is inactive: 3.13%.

`CC(=O)N1N=C2c3ccccc3CCC2C1c1cccs1` (stereo not given) was tested. Which “activity, negative = inhibition” value did it give?
Its value is inactive: -2%.

Which “activity, negative = inhibition” value does the source give for `CC(=O)c1cc(O)c2ccccc2c1O` here?
Its value is inactive: -21.8%.

Which “activity, negative = inhibition” value does the source give for `NNC(=O)c1ccc(COc2cccc3ccccc23)o1` here?
Its value is inactive: -8.99%.

Which “activity, negative = inhibition” value does the source give for `O=C(O)c1ccccc1C1Nc2ccccc2C(=O)N1CCCN1CCOCC1` (stereo not given) here?
The value was inactive: -13.6%.

With `CCOC(=O)c1c(C)n(C)c2ccc(OC)c(NC(=O)CCN3CCC(Cc4ccccc4)CC3)c12` as the compound, how does the “activity, negative = inhibition” value read?
Its value is inactive: -15.5%.

For `CCOc1ccc(C2C3=C(CCCC3=O)OC(N)=C2[N+](=O)[O-])cc1` (stereo not given), which “activity, negative = inhibition” value is on record?
The value was inactive: 0.702%.

How did the “activity, negative = inhibition” value turn out when `CC(C)NC(=O)NNC(=O)Cn1nnc(-c2cccc(Cl)c2Cl)n1` was run?
Its value is inactive: 2.92%.

How did the “activity, negative = inhibition” value turn out when `CC1CC(OC(=O)CN2CCCCC2)CC(C)(C)C1` (stereo not given) was run?
Its value is inactive: -3.89%.

How did the “activity, negative = inhibition” value turn out when `COC(=O)c1cnc(Nc2cccc(C(F)(F)F)c2)c([N+](=O)[O-])c1` was run?
The value was inactive: -3.85%.

How did the “activity, negative = inhibition” value turn out when `CC(O)(c1ccccc1)C(c1ccccc1)C1CCCCN1` (stereo not given) was run?
The value was inactive: -1.46%.

With `O=C(Oc1ccc(NC(=O)c2cc3c(cc2Br)OCO3)cc1)c1ccccc1` as the compound, how does the “activity, negative = inhibition” value read?
Its value is inactive: -0.228%.

How did the “activity, negative = inhibition” value turn out when `O=C1CC(N2CCN(S(=O)(=O)c3ccccc3)CC2)C(=O)N1c1ccccc1` (stereo not given) was run?
The value was inactive: 7.99%.

`CCOC(=O)C1(C)C=C(Nc2cccc(OC)c2)C(=O)N1c1ccccc1` (stereo not given) was tested. Which “activity, negative = inhibition” value did it give?
The value was inactive: -13%.

How did the “activity, negative = inhibition” value turn out when `Cc1ccnn1CC(=O)N/N=C/c1cn[nH]c1-c1ccccc1` was run?
The value was inactive: 3.97%.

How did the “activity, negative = inhibition” value turn out when `Cc1cccc(CSc2nnc([C@@H]3CCCN3)o2)c1` was run?
The value was inactive: -7.5%.

How did the “activity, negative = inhibition” value turn out when `Cc1nnc(NC(=O)c2ccccc2NC(=O)c2ccccc2)s1` was run?
Its value is inactive: -3.42%.

Which “activity, negative = inhibition” value does the source give for `O=C(O)CCC(=O)NCC(=O)c1ccc(F)cc1` here?
Its value is inactive: 7.94%.

`CCc1ccc(/C=N/N2CCN(c3ccccn3)CC2)cc1` was tested. Which “activity, negative = inhibition” value did it give?
The value was inactive: -12%.

Which “activity, negative = inhibition” value does the source give for `Nc1ccc(C(=O)C(=O)c2ccc(N)cc2)cc1` here?
The value was inactive: 4.27%.

Which “activity, negative = inhibition” value does the source give for `O=C(NN1C(=O)/C(=C/c2cccs2)SC1=S)c1cccnc1` here?
The value was inactive: -9.17%.

With `O=C(O)c1cc2ccccc2cc1Nc1ccccc1` as the compound, how does the “activity, negative = inhibition” value read?
The value was inactive: -13.1%.

For `Cc1cc(C)n(CC(=O)N/N=C/c2c[nH]c3ccccc23)n1`, which “activity, negative = inhibition” value is on record?
The value was inactive: 7.23%.

With `O=C1CC(Sc2ccc(Cl)cc2)C(=O)N1c1ccc2c(c1)OCCO2` (stereo not given) as the compound, how does the “activity, negative = inhibition” value read?
The value was inactive: -12%.

Which “activity, negative = inhibition” value does the source give for `Nc1cc(=O)[nH]c(SCC(=O)Nc2cc(Cl)ccc2Cl)n1` here?
The value was inactive: -10%.

How did the “activity, negative = inhibition” value turn out when `CC(C)(C)c1ccc(CCC2OCC(C[N+]3(C)CCOCC3)O2)cc1` (stereo not given) was run?
Its value is inactive: -2.73%.

For `CC(C)(NC(=O)c1cc(Cl)c2ccccc2c1O)C(=O)O`, which “activity, negative = inhibition” value is on record?
Its value is inactive: -1.91%.

For `Cc1onc(-c2c(Cl)cccc2Cl)c1C(=O)N=C(N)N1CC(C)OC(C)C1` (stereo not given), which “activity, negative = inhibition” value is on record?
Its value is inactive: 1.53%.

For `O=c1[nH]c(CSc2cccc[n+]2[O-])nc2ccccc12`, which “activity, negative = inhibition” value is on record?
The value was inactive: -0.257%.

`Oc1ccc2ccccc2c1C=Nc1ccccc1` was tested. Which “activity, negative = inhibition” value did it give?
Its value is inactive: -2.72%.

Which “activity, negative = inhibition” value does the source give for `Nn1c(SCc2cccc(Br)c2)nnc1-c1cccnc1` here?
The value was inactive: -0.468%.

`CCOC(=O)CN1NC2(CCCCCC2)NC1=S` was tested. Which “activity, negative = inhibition” value did it give?
Its value is inactive: -2.8%.
